Measurements published in PubChem BioAssay AID1963576 (National Center for Advancing Translational Sciences (NCATS), 2024).
About 60 (0.1%) of roughly 46,000 compounds were called active. Another 3% or so got no clear call; they are omitted. Calls come from the whole dose curve; as a rule, active = well fitted inhibition curve with a large enough effect; inconclusive = small, poorly fitted or top-dose-only effect; inactive = no such curve, though single readings can be large or run the other way. This is one part of the list.

Experiment: Primary qHTS assay for Inhibitors of ovarian cancer metastasis using an organotypic tumor microenvironment (TME) model.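 For Potency: count of GFP cancer cells still attached after washing and fixation.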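 For activity change, negative = inhibition: plate controls were DMSO wells for no effect and tomatine positive control wells for full effect.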 Note: nearly all actives have a fitted effect of over 65% in size.
Details: SKOV3ip1-GFP adhesion/invasion on 3D omental model, fluorescence; series mostly up to 45.8 µM; activity change, negative = inhibition: at the top concentration
Procedure, shortened: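 Primary human omental fibroblast/mesothelial 3D culture pre-formed 48 h. SKOV3ip1-GFP cells added with compounds (0.36-46 umol/L), incubated 2 h RT/16 h 37 C, fixed; GFP cells quantified at 488/509 nm.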
Potency is the fitted concentration of half-maximal effect.

Structure (SMILES)	activity change, negative = inhibition	outcome	Potency
COc1ccc(OC)c(NC(=O)N2CC3CCCN3c3ccccc32)c1 (stereo not drawn)	inactive: 6.4%		
CCOC(=O)c1cccc(NC(=O)N2CC=C(c3c[nH]c4ccccc34)CC2)c1		inactive	
COCCNc1oc(-c2ccc(OC)cc2)nc1C#N	inactive: 32.9%		
CC(=O)c1ccc(NC(=O)CC2Oc3ccc(C)cc3NC2=O)cc1 (stereo not drawn)	inactive: -1.25%		
CCOC(=O)Cc1c(C(=O)OCC)nnc2c(-c3ccccc3)c(C)nn12		inactive	
COc1cccc(NC(=O)CSc2c3c(nc4ccccc24)CCCC3)c1			active: 11.2 µM
Cc1cccc(NC(=O)CN2C(=O)CSc3ccc(S(=O)(=O)N4CCCC4)cc32)c1C	inactive: -7.31%		
CCOc1ccc(N(CC)S(=O)(=O)N2CCCC(C(=O)Nc3ccc(OC)c(Cl)c3)C2)cc1 (stereo not drawn)	inactive: 9.21%		
Cc1nn(C(=O)c2cccc([N+](=O)[O-])c2C)c(C)c1S(=O)(=O)N1CCCCCC1	inactive: -0.134%		
Cc1c(Cl)ccc2sc(N3CCN(C(=O)C4CC4)CC3)nc12	inactive: -7.81%		
COc1ccc(-c2onc(C)c2C)cc1S(=O)(=O)N1CCN(c2cc(C)ccc2C)CC1		inactive	
COc1ccc(-c2cc3nc(C)c(CCC(=O)NC(C)c4ccccc4)c(C)n3n2)c(OC)c1 (stereo not drawn)	inactive: -9.35%		
O=C(Nc1ccccc1C(F)(F)F)N1CC=C(c2c[nH]c3ccccc23)CC1		inactive	
COC(=O)CC(=O)CSc1nc2cc(C(=O)NCC(C)C)ccc2c(=O)n1CCc1ccccc1		inactive	
CC1CCN(S(=O)(=O)c2ccc3c(c2)CCN3C(=O)Nc2ccc(Br)cc2F)CC1	inactive: 3.37%		
Cc1cccc(NC(=O)N2CCC(CN3CCCCCC3)CC2)c1C		inactive	
Cc1ccc(C2CCN(C(=O)c3cnn(-c4ccc(C)c(C)c4)c3C3CCN(C(=O)OC(C)(C)C)CC3)C2)cc1 (stereo not drawn)		inactive	
Cc1cc(C)c(OCCOCCn2c(-c3ccc(Cl)cc3)nc3ccccc3c2=O)c(C)c1	inactive: -5.68%		
Cc1nc(SCC(=O)Nc2ccc(C(=O)O)cc2)n[nH]1	inactive: 6.16%		
COc1ccc(OC)c(NC(=O)CC(=O)Nc2ccc3nc4n(c(=O)c3c2)CCCCC4)c1		inactive	
CCOc1ccccc1C(=O)N1CCC(c2nc3ccccc3o2)CC1	inactive: -29.7%		
CCc1ccccc1NC(=O)Cn1nc(N2CCN(c3ccccc3OC)CC2)ccc1=O	inactive: 2.25%		
Cc1ccc(C)c(N2CCN(C(=O)C(CC(C)C)NS(=O)(=O)c3ccc4nc(C)sc4c3)CC2)c1 (stereo not drawn)	inactive: 0.886%		
Cc1cc(F)ccc1NC(=O)CCn1nc(C)c(S(=O)(=O)N2CCCCC2)c1C	inactive: 5.27%		

Structure (SMILES)	activity change, negative = inhibition	outcome	Potency
COc1ccccc1C(=O)Nc1ccc(S(=O)(=O)Nc2ncccn2)cc1	inactive: 5.15%		
Cc1cccc(-n2nc(C)c(C(=O)N3CCN(c4ccccc4)CC3)c2-n2cccc2)c1	inactive: 3.33%		
CS(=O)(=O)N(Cc1ccccc1)c1ccc(C(=O)Nc2ccc(Cl)cc2)cc1	inactive: -29.6%		
NC(=O)CSc1nc2ccc(NC(=O)COc3ccccc3Cl)cc2s1	inactive: 6.37%		
Cc1cccc(OCCCn2c(CCNC(=O)C3CCCCC3)nc3ccccc32)c1		inactive	
CCOc1ccccc1OCCNC(C)Cc1ccc(OC)c(S(N)(=O)=O)c1 (stereo not drawn)	inactive: 11.6%		
Cn1c(=O)[nH]c(=O)c2c1nc(CN1CCN(c3ccccc3F)CC1)n2Cc1ccc(F)cc1	inactive: 14.6%		
COc1ccccc1CN(Cc1c(Cl)cccc1Cl)S(=O)(=O)c1ccc(Br)cc1	inactive: 4.94%		
Cc1ccc(C)c(N2CCN(c3nc4ccc(C(=O)c5ccccc5)cc4n4cnnc34)CC2)c1	inactive: 6.41%		
CCOC(=O)c1cnc2c(C)cccc2c1Nc1ccc(OC(C)C)cc1	inactive: 1.77%		
COc1cccc(-c2nc(SCC(=O)Nc3ccc4c(c3)OCCO4)c(-c3ccc(C)cc3)[nH]2)c1	inactive: -18.4%		
COc1ccc(Cl)cc1NC(=O)c1cc(S(=O)(=O)N(C)Cc2ccccc2)ccc1F	inactive: 9.83%		
Cc1ccc(Cl)cc1NC(=O)c1oc2ccc(S(=O)(=O)N3CCCCCC3)cc2c1C	inactive: -4.36%		
O=C(NCCc1ccc(Cl)cc1)c1ccc(CSCc2cccc(Cl)c2)o1	inactive: -11.5%		
Cn1cc(S(=O)(=O)c2cccc(Cl)c2)c(=O)c2cc(F)c(N3CCCCC3)cc21	inactive: 2.66%		
CCCN1C(=O)C(Cc2nc3ccccc3c(=O)n2-c2ccc(OC)cc2)c2cc(C)ccc21 (stereo not drawn)	inactive: 4.46%		
CCc1cccc(C)c1NC(=O)CSc1nc2c(c(=O)[nH]1)CCC2	inactive: -5.04%		
CCCCNC(=O)c1ccc2c(c1)NC(=O)C(CS(=O)(=O)Cc1ccc(C)cc1)N2 (stereo not drawn)	inactive: 6.73%		
CC(=O)N1CCc2c(sc3c2c(=O)n(-c2ccc(C)cc2)c(=O)n3Cc2ccccc2C)C1	inactive: -23%		
Cc1ccc(C(=O)Nc2ccc3oc(-c4ccccc4C)nc3c2)cc1	inactive: 2.75%		
CCCN(C(=O)Nc1cn(CC(C)C)c(=O)c2ccccc12)c1ccc(F)cc1		inactive	
Cc1cc(C(=O)NCc2ccccc2Cl)c2c(C)nn(-c3cccc(F)c3)c2n1	inactive: 12.8%		
Cc1ccc2oc(=O)n(CCNC(=O)Nc3ccc(Cl)cc3)c2c1	inactive: 124%		
O=C(NCC(c1ccco1)S(=O)(=O)c1cccs1)c1ccc(Cl)cc1 (stereo not drawn)	inactive: 8.35%		
